# The supplement of paper PMC8728848
# Some of the results follow.
# B1: Calsepa (Calystegia sepium), P93114 (protein)
# chain: MAVPMDTISGPWGNNGGNFWSFRPVNKINQIVISYGGGGNNPIALTFSSTKADGSKDTITVGGGGPDSITGTEMVNIGTDEYLTGISGTFGIYLDNNVLRSITFTTNLKAHGPYGQKVGTPFSSANVVGNEIVGFLGRSGYYVDAIGTYNRHK
# Experiments:
# Assay in all cases: glycan array binding signal (z-score within array); higher = stronger binding
# Conditions in all cases: glycan notation: IUPAC condensed, linker removed
# [1] = biological target: Gal(b1-3)GlcNAc(b1-3)Gal(b1-4)GlcNAc(b1-6)[Gal(b1-3)GlcNAc(b1-3)]Gal(b1-4)Glc
# In short: (§1)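 From the Consortium for Functional Glycomics database, 3228 arrays were curated, keeping only those whose protein sequence was available. Binding is given as a within-array Z-score averaged across arrays sharing a protein sequence and across linkers. Negative Z-scores can be read as non-binding.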
# [2] = biological target: Gal(b1-3)GlcNAc(b1-3)Gal(b1-4)[Fuc(a1-3)]GlcNAc(b1-6)[Gal(b1-3)GlcNAc(b1-3)]Gal(b1-4)Glc
# In short: as §1
# [3] = biological target: Gal(b1-3)GlcNAc(b1-3)GalNAc
# In short: as §1
# [4] = biological target: Gal(b1-3)GlcNAc(b1-6)Gal(b1-4)GlcNAc
# In short: as §1
# [5] = biological target: Gal(b1-3)GlcNAc(b1-6)GalNAc
# In short: as §1
# Gal(b1-3)GlcNAc6S = biological target: Gal(b1-3)GlcNAc6S
# In short: as §1
# [6] = biological target: Gal(b1-3)[Fuc(a1-4)]GlcNAc
# In short: as §1
# [7] = biological target: Gal(b1-3)[Fuc(a1-4)]GlcNAc(b1-2)Man(a1-3)[Gal(b1-3)[Fuc(a1-4)]GlcNAc(b1-2)Man(a1-6)]Man(b1-4)GlcNAc(b1-4)GlcNAc
# In short: as §1
# [8] = biological target: Gal(b1-3)[Fuc(a1-4)]GlcNAc(b1-2)Man(a1-3)[Gal(b1-3)[Fuc(a1-4)]GlcNAc(b1-2)Man(a1-6)]Man(b1-4)GlcNAc(b1-4)[Fuc(a1-6)]GlcNAc
# In short: as §1
# [9] = biological target: Gal(b1-3)[Fuc(a1-4)]GlcNAc(b1-3)Gal(b1-3)[Fuc(a1-4)]GlcNAc
# In short: as §1
# [10] = biological target: Gal(b1-3)[Fuc(a1-4)]GlcNAc(b1-3)Gal(b1-4)GlcNAc
# In short: as §1
# [11] = biological target: Gal(b1-3)[Fuc(a1-4)]GlcNAc(b1-3)Gal(b1-4)[Fuc(a1-3)]GlcNAc
# In short: as §1
# [12] = biological target: Gal(b1-3)[Fuc(a1-4)]GlcNAc(b1-6)GalNAc
# In short: as §1
# [13] = biological target: Gal(b1-3)[GlcNAc(b1-6)]GalNAc
# In short: as §1
# [14] = biological target: Gal(b1-3)[Neu5Ac(a2-6)]GalNAc
# In short: as §1
# [15] = biological target: Gal(b1-3)[Neu5Ac(a2-6)]GlcNAc(b1-6)Gal(b1-4)Glc
# In short: as §1
# [16] = biological target: Gal(b1-3)[Neu5Ac(b2-6)]GalNAc
# In short: as §1
# Gal(b1-4)Gal = biological target: Gal(b1-4)Gal
# In short: as §1
# [17] = biological target: Gal(b1-4)GalNAc(a1-3)[Fuc(a1-2)]Gal(b1-4)GlcNAc
# In short: as §1
# [18] = biological target: Gal(b1-4)GalNAc(b1-3)[Fuc(a1-2)]Gal(b1-4)GlcNAc
# In short: as §1
# Gal(b1-4)Glc = biological target: Gal(b1-4)Glc
# In short: as §1
# Gal(b1-4)Glc6S = biological target: Gal(b1-4)Glc6S
# In short: as §1
binder,measurement,setting,value
B1,glycan array binding signal (z-score),[1],-0.272
same,glycan array binding signal (z-score),[2],-0.274
same,glycan array binding signal (z-score),[3],-0.272
same,glycan array binding signal (z-score),[4],-0.274
same,glycan array binding signal (z-score),[5],-0.272
same,glycan array binding signal (z-score),Gal(b1-3)GlcNAc6S,-0.273
same,glycan array binding signal (z-score),[6],-0.25
same,glycan array binding signal (z-score),[7],-0.073
same,glycan array binding signal (z-score),[8],-0.242
same,glycan array binding signal (z-score),[9],-0.248
same,glycan array binding signal (z-score),[10],-0.252
same,glycan array binding signal (z-score),[11],-0.253
same,glycan array binding signal (z-score),[12],-0.252
same,glycan array binding signal (z-score),[13],-0.249
same,glycan array binding signal (z-score),[14],-0.243
same,glycan array binding signal (z-score),[15],-0.248
same,glycan array binding signal (z-score),[16],-0.245
same,glycan array binding signal (z-score),Gal(b1-4)Gal,-0.26
same,glycan array binding signal (z-score),[17],-0.249
same,glycan array binding signal (z-score),[18],-0.241
same,glycan array binding signal (z-score),Gal(b1-4)Glc,-0.247
same,glycan array binding signal (z-score),Gal(b1-4)Glc6S,-0.248
